Values joined by “and” are separate entries in the source; they are usually repeats but may differ in a detail not shown here. Equal entries are not always repeated. Structures can show the parent of a compound that is named as a salt. Out of some 5,800 compounds screened, about 620 (11%) showed activity.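 Rule for the calls: active = score above a cut-off or among the top three wells of a plate; in these data no inactive exceeds 0.85.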 The entries are a selection whose mix differs from that of the whole data set.
System: primary human hepatic stellate cells (donor 1)
Experiment: scaled lipid accumulation score (0 = DMSO-like, 1 = nortriptyline-like); higher = stronger HSC inactivation (lipid re-accumulation), active = hit call of the paper
Settings: 48 h
[1] = library stock concentration: 2 mM
[2] = library stock concentration: 10 mM
[3] = library stock concentration: 6.2 mM
[4] = library stock concentration: 1 mM
[5] = library stock concentration: 3.33 mM
[6] = library stock concentration: 80 uM
[7] = library stock concentration: 400 uM

In the case of `CN(C)CC=CC(=O)Nc1cc2c(Nc3ccc(F)c(Cl)c3)ncnc2cc1OC1CCOC1` (centres undefined), the “scaled lipid accumulation score” value [1] is reported as active: 0.855.
`CC(=O)O[C@H]1Cc2ccccc2N(C(N)=O)c2ccccc21` was tested, and the “scaled lipid accumulation score” value [2] was inactive: ≤ 0.
In the case of `CCOC(=O)c1ccc(O)cc1` [Ethyl paraben], the “scaled lipid accumulation score” value (library stock concentration: 12 mM) is reported as inactive: ≤ -0.001.
For `O=C(Nc1ccc(C(F)(F)F)cn1)N1CCN(c2ncccc2C(F)(F)F)CC1`, the “scaled lipid accumulation score” value [2] was inactive: 0.012.
`CC(C)(C)NC(=O)[C@@H]1CN(Cc2cccnc2)CCN1C[C@@H](O)C[C@@H](Cc1ccccc1)C(=O)N[C@H]1c2ccccc2C[C@H]1O` was tested, and the “scaled lipid accumulation score” value [2] was inactive: ≤ 0.
In the case of `CC(=O)NCCc1c(Cc2ccccc2)[nH]c2ccccc12` [Luzindole], the “scaled lipid accumulation score” value [2] is reported as inactive: ≤ 0.
`O=C(O[C@@H]1C[C@@H]2C[C@H]3C[C@H](C1)N2CC3=O)c1c[nH]c2ccccc12` was tested, and the “scaled lipid accumulation score” value (library stock concentration: 10.4 mM) was inactive: ≤ 0.
For `O=C(O[C@@H]1C[C@@H]2C[C@H]3C[C@H](C1)N2CC3=O)c1c[nH]c2ccccc12` [Dolasetron], the “scaled lipid accumulation score” value [3] was inactive: ≤ -0.002.
In the case of `O=C(O)c1ccccc1Nc1cccc(OCc2ccc3ccccc3n2)c1`, the “scaled lipid accumulation score” value [2] is reported as inactive: ≤ 0.
`O=C(O)c1ccccc1Nc1cccc(OCc2ccc3ccccc3n2)c1` [SR 2640 hydrochloride] was tested, and the “scaled lipid accumulation score” value [2] was inactive: ≤ -0.006.
`COc1cc(C(O)C(=O)O)ccc1O` (centres undefined) was tested, and the “scaled lipid accumulation score” value [2] was inactive: ≤ -0.036.
With `CC(O)CC(C)(C)O` (centres undefined) the “scaled lipid accumulation score” value [2] was inactive: ≤ 0.
`CCCCC[C@H](O)/C=C/[C@@H]1[C@H]2C/C(=C/CCCC(=O)O)O[C@H]2C[C@H]1O` [Prostaglandin I2 (sodium salt)] was tested, and the “scaled lipid accumulation score” value [4] was inactive: ≤ 0.
For `CCCCC[C@H](O)/C=C/[C@@H]1[C@H]2C/C(=C/CCCC(=O)O)O[C@H]2C[C@H]1O` [Prostaglandin I2], the “scaled lipid accumulation score” value [4] was inactive: ≤ -0.021.
`NC1=N[C@@]2(c3cc(NC(=O)c4ccc(F)cn4)ccc3F)COC[C@H]2CS1` was tested, and the “scaled lipid accumulation score” value [5] was inactive: 0.012 and the “scaled lipid accumulation score” value [2] was inactive: 0.209.
With `COc1ccc(COc2cc3oc(=O)c4cc(C(C)O)ccc4c3cc2OC)cc1` (centres undefined) [Palomid 529 (P529)] the “scaled lipid accumulation score” value [5] was inactive: ≤ 0 and the “scaled lipid accumulation score” value [2] was inactive: ≤ 0.
With `COc1ccc(COc2cc3oc(=O)c4cc(C(C)O)ccc4c3cc2OC)cc1` (centres undefined) the “scaled lipid accumulation score” value [6] was inactive: ≤ 0, the “scaled lipid accumulation score” value [7] was inactive: 0.025 and the “scaled lipid accumulation score” value [1] was inactive: ≤ 0. For the same compound, the “scaled lipid accumulation score” value [2] was inactive: 0.307.
With `CCN(CC)CCCCC1CCN(CC(=O)N2c3ccccc3C(=O)Nc3cccnc32)CC1` the “scaled lipid accumulation score” value [2] was inactive: 0.136.
With `COc1ccccc1N1CCN(CCN2C(=O)CC3(CCCC3)CC2=O)CC1` the “scaled lipid accumulation score” value [5] was inactive: 0.031 and the “scaled lipid accumulation score” value [2] was inactive: 0.068.
In the case of `COc1ccccc1N1CCN(CCN2C(=O)CC3(CCCC3)CC2=O)CC1` [BMY 7378 dihydrochloride], the “scaled lipid accumulation score” value [2] is reported as inactive: ≤ 0.
In the case of `OCC(O)CN1CCN(c2ccccc2)CC1` (centres undefined) [Dropropizine], the “scaled lipid accumulation score” value [5] is reported as inactive: ≤ 0 and the “scaled lipid accumulation score” value [2] is reported as inactive: ≤ -0.001 and inactive: 0.038.
`CC[C@]1(O)C[C@H]2CN(CCc3c([nH]c4ccccc34)[C@@](C(=O)OC)(c3cc4c(cc3OC)N(C)[C@H]3[C@@](O)(C(N)=O)[C@H](O)[C@]5(CC)C=CCN6CC[C@]43[C@@H]65)C2)C1.O=S(=O)(O)O` was tested, and the “scaled lipid accumulation score” value (library stock concentration: 9.7 mM) was active: 1.52.
With `C[C@H](O)C(=O)C1=Nc2c(nc(N)[nH]c2=O)NC1` [Sepiapterin] the “scaled lipid accumulation score” value [2] was inactive: ≤ 0.
In the case of `COc1cc(N)c(Cl)cc1C(=O)NC1CCN(CCCOc2ccc(F)cc2)CC1OC` (centres undefined) [Cisapride], the “scaled lipid accumulation score” value is reported as inactive: 0.386 and the “scaled lipid accumulation score” value [2] is reported as inactive: 0.291.
`CCCCCCCCC=CCCCCCCCCCCCC(N)=O` [13-Docosenamide] was tested, and the “scaled lipid accumulation score” value [4] was inactive: ≤ 0.
With `O=C(O)CCC/C=C/C[C@@H]1[C@@H](/C=C/[C@@H](O)COc2cccc(C(F)(F)F)c2)[C@H](O)C[C@@H]1O` [5-trans Fluprostenol] the “scaled lipid accumulation score” value [4] was inactive: 0.008.
In the case of `CC(C)(C)c1cc(/C=C(\C#N)C(N)=S)cc(C(C)(C)C)c1O` [Tyrphostin AG 879], the “scaled lipid accumulation score” value [5] is reported as inactive: ≤ 0 and the “scaled lipid accumulation score” value [2] is reported as inactive: ≤ 0.
`CN1CCC(CNc2ccc3ncc(-c4cccc(OC(F)(F)F)c4)n3n2)CC1` was tested, and the “scaled lipid accumulation score” value [1] was active: 1.4.
In the case of `CN(CCCOc1ccc(Cc2ccccc2)cc1)CCC(=O)O`, the “scaled lipid accumulation score” value [2] is reported as inactive: ≤ 0.
In the case of `COC1=CC(=O)C[C@@H](C)[C@]12Oc1c(Cl)c(OC)cc(OC)c1C2=O` [Griseofulvin], the “scaled lipid accumulation score” value is reported as inactive: 0.178, the “scaled lipid accumulation score” value [5] is reported as inactive: ≤ 0 and the “scaled lipid accumulation score” value (library stock concentration: 5.7 mM) is reported as inactive: ≤ -0.001. For the same compound, the “scaled lipid accumulation score” value [2] was inactive: 0.103 and inactive: 0.383 and inactive: 0.011.
`Cc1cc(CS(=O)(=O)c2ccccc2)cc(OCc2ccc(CN3CCC[C@@H]3CO)cc2)c1` was tested, and the “scaled lipid accumulation score” value [2] was active: 1.03.
With `CCC(=O)NCC[C@@H]1CCc2ccc3c(c21)CCO3` [Ramelteon] the “scaled lipid accumulation score” value [5] was inactive: 0.06, the “scaled lipid accumulation score” value (library stock concentration: 7.7 mM) was inactive: ≤ 0 and the “scaled lipid accumulation score” value [2] was inactive: ≤ 0 and inactive: 0.067.
`O[C@@H](COc1cccc2ncccc12)CN1CCN(C2c3ccccc3[C@@H]3[C@H](c4ccccc42)C3(F)F)CC1` (some centres undefined) was tested, and the “scaled lipid accumulation score” value [5] was inactive: 0.206 and the “scaled lipid accumulation score” value [2] was inactive: 0.837.
For `CNC(=O)c1c(I)c(NC(C)=O)c(I)c(C(=O)O)c1I`, the “scaled lipid accumulation score” value [2] was inactive: 0.042.
With `C[C@H](NC(=O)/C(C#N)=C/c1ccc(O)c(O)c1)c1ccccc1` [Tyrphostin B44, (+) enantiomer] the “scaled lipid accumulation score” value [2] was inactive: ≤ 0.
In the case of `C[C@H](NC(=O)/C(C#N)=C/c1ccc(O)c(O)c1)c1ccccc1` [Tyrphostin AG 835], the “scaled lipid accumulation score” value [2] is reported as inactive: ≤ 0.
For `COc1ccc(-c2coc3cc(O)cc(O)c3c2=O)cc1` [Biochanin A], the “scaled lipid accumulation score” value [5] was inactive: ≤ 0 and the “scaled lipid accumulation score” value [2] was inactive: 0.029.
With `COc1ccccc1CNCCCCCCNCCCCCCCCNCCCCCCNCc1ccccc1OC` [Methoctramine tetrahydrochloride] the “scaled lipid accumulation score” value [2] was inactive: 0.621.
`CCC(=O)Nc1cccc(Oc2nc(Nc3ccc(N4CCN(C)CC4)cc3OC)ncc2Cl)c1` was tested, and the “scaled lipid accumulation score” value [2] was active: 1.11.
In the case of `O=C(NC1CCNCC1)c1n[nH]cc1NC(=O)c1c(Cl)cccc1Cl`, the “scaled lipid accumulation score” value [6] is reported as inactive: 0.367, the “scaled lipid accumulation score” value [7] is reported as inactive: 0.117 and inactive: 0.282 and the “scaled lipid accumulation score” value [1] is reported as inactive: 0.26 and inactive: 0.49. For the same compound, the “scaled lipid accumulation score” value [5] was inactive: 0.109 and the “scaled lipid accumulation score” value [2] was inactive: 0.212 and inactive: 0.239 and inactive: 0.462.
`CC(C)c1noc(N2CCC(COc3ccc(-c4ccc(S(C)(=O)=O)cc4)nc3)CC2)n1` was tested, and the “scaled lipid accumulation score” value [5] was inactive: 0.019 and the “scaled lipid accumulation score” value [2] was inactive: 0.16.
With `CCCCC[C@H](O)/C=C/[C@H]1CCC(=O)[C@@H]1C/C=C\CCCC(=O)O` [11-deoxy Prostaglandin E2] the “scaled lipid accumulation score” value [4] was inactive: 0.072.
With `CCCCCCCCCCCCCC(=O)N[C@H](CO)[C@H](O)c1ccc([N+](=O)[O-])cc1` the “scaled lipid accumulation score” value [4] was inactive: 0.012.
In the case of `CC[C@H](Nc1ncnc2[nH]cnc12)c1nc2cccc(F)c2c(=O)n1-c1ccccc1`, the “scaled lipid accumulation score” value [6] is reported as inactive: ≤ -0.016, the “scaled lipid accumulation score” value [7] is reported as inactive: ≤ -0.016 and the “scaled lipid accumulation score” value [1] is reported as inactive: 0.044. The “scaled lipid accumulation score” value [2] was inactive: 0.005.
In the case of `CC[C@H](Nc1ncnc2[nH]cnc12)c1nc2cccc(F)c2c(=O)n1-c1ccccc1` [CAL-101 (Idelalisib, GS-1101)], the “scaled lipid accumulation score” value [5] is reported as inactive: ≤ 0 and the “scaled lipid accumulation score” value [2] is reported as inactive: ≤ 0.
In the case of `COc1cc2c(N3CCN(C(=O)Nc4ccc(OC(C)C)cc4)CC3)ncnc2cc1OCCCN1CCCCC1`, the “scaled lipid accumulation score” value [2] is reported as active: 1.24.
For `CN(C)[C@@H](CCOc1cccc2ccccc12)c1ccccc1` [Dapoxetine HCl], the “scaled lipid accumulation score” value [5] was inactive: 0.506 and the “scaled lipid accumulation score” value [2] was inactive: 0.625.
`Nn1nnc2ccccc21` [1-Aminobenzotriazole] was tested, and the “scaled lipid accumulation score” value [2] was inactive: 0.068.
`CN(C)CCCC1(c2ccc(F)cc2)OCc2cc(C#N)ccc21` (centres undefined) [Citalopram hydrobromide] was tested, and the “scaled lipid accumulation score” value [2] was inactive: 0.259 and inactive: 0.597.
With `CN(C)CCCC1(c2ccc(F)cc2)OCc2cc(C#N)ccc21` (centres undefined) [Citalopram Hydrobromide] the “scaled lipid accumulation score” value was inactive: ≤ 0.
`CN(C)CCCC1(c2ccc(F)cc2)OCc2cc(C#N)ccc21` (centres undefined) [Citalopram] was tested, and the “scaled lipid accumulation score” value [3] was inactive: 0.446 and inactive: 0.566 and the “scaled lipid accumulation score” value [2] was inactive: 0.51.
`O=C(O)CNC(=O)C(CS)Cc1ccccc1` (centres undefined) [Thiorphan] was tested, and the “scaled lipid accumulation score” value was inactive: ≤ 0.
In the case of `Cc1onc(-c2ccccc2)c1C(=O)N[C@@H]1C(=O)N2[C@@H]1SC(C)(C)[C@@H]2C(=O)O` [Oxacillin sodium monohydrate], the “scaled lipid accumulation score” value (library stock concentration: 5 mM) is reported as inactive: 0.014.
`Cc1onc(-c2ccccc2)c1C(=O)N[C@@H]1C(=O)N2[C@@H]1SC(C)(C)[C@@H]2C(=O)O` [Micropenin] was tested, and the “scaled lipid accumulation score” value [2] was inactive: 0.3.
For `Cc1onc(-c2ccccc2)c1C(=O)N[C@@H]1C(=O)N2[C@@H]1SC(C)(C)[C@@H]2C(=O)O` [Oxacillin sodium], the “scaled lipid accumulation score” value (library stock concentration: 4.7 mM) was inactive: ≤ -0.001 and the “scaled lipid accumulation score” value [2] was inactive: ≤ 0.
`CCCCC/C=C\C\C=C/C=C/C=C/CC(=O)CCCC(=O)O` [5-Ketoeicosatetraenoic acid] was tested, and the “scaled lipid accumulation score” value (library stock concentration: 100 uM) was inactive: ≤ -0.021.
In the case of `COc1cc(CC(=O)O)ccc1O` [4-Hydroxy-3-methoxyphenylacetic acid], the “scaled lipid accumulation score” value [2] is reported as inactive: ≤ -0.07.
With `Cc1cc(CC(C)CC(C)(C)C)n(O)c(=O)c1` (centres undefined) the “scaled lipid accumulation score” value [2] was inactive: 0.435.
With `C=CC[N@@+]12CC[C@@]34c5ccccc5N5/C=C6/[C@H]7C[C@H]8[C@@]9(CC[N@@+]8(CC=C)C/C7=C/CO)c7ccccc7N(/C=C(/[C@@H](C[C@@H]31)/C(=C\CO)C2)[C@H]54)[C@@H]69` [Alcuronium chloride] the “scaled lipid accumulation score” value was inactive: ≤ 0.
In the case of `CN1CCC[C@H]1c1cccnc1`, the “scaled lipid accumulation score” value [2] is reported as inactive: ≤ 0.
With `CN1CCC[C@H]1c1cccnc1` [Nicotine ditartrate] the “scaled lipid accumulation score” value [2] was inactive: 0.046.
`O=S(=O)(O)CCSSCCS(=O)(=O)O` was tested, and the “scaled lipid accumulation score” value [2] was inactive: ≤ 0.
With `O=S(=O)(O)CCSSCCS(=O)(=O)O` [Dimesna] the “scaled lipid accumulation score” value [5] was inactive: ≤ 0 and the “scaled lipid accumulation score” value [2] was inactive: ≤ 0.
In the case of `CO[C@H]1C(=O)[C@]2(C)[C@@H](OC)C[C@H]3OC[C@@]3(OC(C)=O)[C@H]2[C@H](OC(=O)c2ccccc2)[C@]2(O)C[C@H](OC(=O)[C@H](O)[C@@H](NC(=O)OC(C)(C)C)c3ccccc3)C(C)=C1C2(C)C` [Cabazitaxel], the “scaled lipid accumulation score” value [5] is reported as inactive: ≤ 0 and the “scaled lipid accumulation score” value [2] is reported as inactive: ≤ 0.
